Reference: PubChem BioAssay AID1645882 (National Center for Advancing Translational Sciences (NCATS), 2021)
Screen size: about 16,000 compounds; about 120 (0.75%) were called active. Not shown: some 4% with an inconclusive outcome. Calls come from the whole dose curve; as a rule, active = well fitted inhibition curve with a large enough effect; inconclusive = small, poorly fitted or top-dose-only effect; inactive = no such curve, though single readings can be large or run the other way. This is one part of the list. Where a SMILES comes first, the peptide text is derived from it. Bridges are numbered along the chain shown (N, C = ends). [ ]: non-standard residue; d: D form. The star is where a group is joined. Dab(CH2SO3H) = N[C@@H](CCNCS(=O)(=O)O)C(=O)O; X8 = CC[C@@H](C)CCCCC(=O)*; Dab = NCC[C@H](N)C(=O)O

Target: Rap guanine nucleotide exchange factor 3 (Homo sapiens) (UniProt O95398)
Chain of UniProt O95398 (O95398 whole entry, looked up): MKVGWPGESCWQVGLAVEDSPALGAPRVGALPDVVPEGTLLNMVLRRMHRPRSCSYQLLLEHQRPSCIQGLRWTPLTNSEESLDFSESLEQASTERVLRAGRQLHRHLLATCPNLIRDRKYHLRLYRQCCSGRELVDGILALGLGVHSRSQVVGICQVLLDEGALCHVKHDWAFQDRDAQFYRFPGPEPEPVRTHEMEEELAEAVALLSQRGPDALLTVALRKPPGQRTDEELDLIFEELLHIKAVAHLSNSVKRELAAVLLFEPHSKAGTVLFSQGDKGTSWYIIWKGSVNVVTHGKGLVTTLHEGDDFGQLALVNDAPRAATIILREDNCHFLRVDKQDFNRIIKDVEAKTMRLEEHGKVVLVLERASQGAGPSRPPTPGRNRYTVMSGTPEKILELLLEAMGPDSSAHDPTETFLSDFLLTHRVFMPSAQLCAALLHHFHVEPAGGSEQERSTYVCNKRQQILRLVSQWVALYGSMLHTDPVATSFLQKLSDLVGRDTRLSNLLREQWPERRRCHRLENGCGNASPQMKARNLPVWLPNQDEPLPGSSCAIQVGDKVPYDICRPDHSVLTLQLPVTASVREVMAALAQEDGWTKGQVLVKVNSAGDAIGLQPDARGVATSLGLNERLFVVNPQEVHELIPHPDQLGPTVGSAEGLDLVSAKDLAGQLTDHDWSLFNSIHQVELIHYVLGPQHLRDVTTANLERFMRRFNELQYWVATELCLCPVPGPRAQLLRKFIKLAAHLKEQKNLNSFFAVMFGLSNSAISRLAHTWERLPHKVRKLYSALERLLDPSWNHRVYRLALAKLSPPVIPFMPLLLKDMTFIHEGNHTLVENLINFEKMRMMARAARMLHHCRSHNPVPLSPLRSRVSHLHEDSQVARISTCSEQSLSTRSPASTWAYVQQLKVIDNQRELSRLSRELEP
Test: Validation qHTS for antagonist of cAMP-regulated guanine nucleotide exchange factor 3 (EPAC1); note: nearly all actives have a fitted effect of over 75% in size;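 for activity change, negative = inhibition: plate controls were DMSO for no effect and ATA control for full effect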
Settings: EPAC1 Rap1B-BODIPY-GDP exchange, fluorescence; series mostly up to 150 µM; activity change, negative = inhibition: at the top concentration
Summary of the method: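 Nucleotide exchange followed as fluorescence loss when BODIPY-GDP leaves Rap1B (480 nm excitation, 540 nm emission), read at 5 min intervals over 30 min. Reaction: 100 nM EPAC1, 250 nM RAP1B-BODIPY-GDP, 50 uM GDP; ATA and DMSO define normalization.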
Potency is the fitted concentration of half-maximal effect.

| Compound | activity change, negative = inhibition | Potency |
| --- | --- | --- |
| CCNc1ncc2nc(CCc3ccccc3)c(=O)n(-c3ccc(OC)cc3)c2n1 | inactive: -6.35% |  |
| C=C(CO)C1Cc2c(ccc3c(=O)c4c(oc23)COc2cc(OC)c(OC)cc2-4)O1 (stereo not drawn) | inactive: 13.6% |  |
| CCN(CC)CCNC(=O)COc1ccc(Cl)cc1 | inactive: -14.3% |  |
| O=C(c1cnccn1)N1CCC[C@@]2(CCN(c3ccncc3)C2)C1 | inactive: -0.95% |  |
| COC(=O)C1CCN(Cc2ccc3c(c2)CN(C(=O)c2cc(C4CC4)on2)CCO3)CC1 | inactive: 3.82% |  |
| CC(C)C(O)c1ccc2c(c1)CN(C(=O)c1ccccc1-n1cccn1)CCO2 (stereo not drawn) | inactive: 6.93% |  |
| CCCCCCNC(=O)n1cc(F)c(=O)[nH]c1=O | inactive: 16% |  |
| O=C(O)C1CC(C2CCCCN2)CN2CCCCC12 (stereo not drawn) | inactive: 17.3% |  |
| CCC[C@@H]1C[C@@H](C(=O)N[C@@H]([C@H]2O[C@H](SC)[C@H](OP(=O)(O)O)[C@@H](O)[C@H]2O)[C@H](C)Cl)N(C)C1 | inactive |  |
| CCc1cc(C(=O)NCC2Cc3cc(C)cc(-c4cc(C(C)=O)ccc4F)c3O2)n(C)n1 (stereo not drawn) | inactive: -1.57% |  |
| O=c1ccn(C2OC(COP(=O)(O)OP(=O)(O)OP(=O)(O)O)C(O)C2O)c(=O)[nH]1 (stereo not drawn) | inactive: -8.4% |  |
| CN[C@@H]1[C@@H](O[C@H]2O[C@H](CO)[C@@H](N)[C@H](O)[C@H]2O)O[C@H]2C[C@@H](N)[C@@H](O[C@H]3[C@H](O)[C@@H](O)[C@H](N)C[C@@H]3N)O[C@@H]2[C@@H]1O | inactive: 14.8% [at 75.8 µM] |  |
| CCS(=O)(=O)Nc1cc(C(=O)N[C@H]2CCCCNC2=O)c2c(c1)nc(-c1ccccc1)n2C | inactive: 23.9% |  |
| c1cncc(CNc2cc(-c3ccoc3)ncn2)c1 | inactive: 5.08% |  |
| CC(C)OC(=O)c1cc(C(=O)OC(C)C)cc([N+](=O)[O-])c1 | inactive: 15.6% [at 320 µM] |  |
| COc1cccc2c1C(=O)c1c(O)c3c(c(O)c1C2=O)C[C@@](O)(C(=O)CO)C[C@@H]3O[C@H]1C[C@H](N)[C@H](O[C@@H]2CCCCO2)[C@H](C)O1 | inactive: -22.8% |  |
| COC(=O)c1c(OCc2ccccn2)cc(=O)n2c1CCN(C(=O)c1cc(C(C)C)nn1C)CC2 | inactive: 2.61% |  |
| COc1cc([C@@H]2c3cc4c(cc3[C@@H](O[C@@H]3O[C@@H]5CO[C@@H](C)O[C@@H]5[C@H](O)[C@@H]3O)[C@H]3COC(=O)[C@H]23)OCO4)cc(OC)c1O | inactive: 19.9% [at 39.6 µM] |  |
| COC(=O)C1=CO[C@@H](O)[C@@H]2C(CO)=CC[C@H]12 | inactive: 5.88% [at 75.8 µM] |  |
| COCCn1c(=O)c(-c2ccc(OC)cc2)nc2cnc(Oc3ccccc3)nc21 | inactive: 6.68% |  |
| CC(=O)Nc1ccn(C2COC(COC(=O)c3ccccc3)O2)c(=O)n1 (stereo not drawn) | inactive: -15.3% |  |
| NC(=S)N=Nc1ccc(NN=C(N)N)cc1 | inactive: -4.56% |  |
| COc1ccc(-c2nc3cnc(OC)nc3n(Cc3cccs3)c2=O)cc1 | inactive: 12.9% |  |
| Cc1ccc(C(=O)Nc2cccc(-c3nc(CNC(=O)C4CCCCC4)c(C)o3)c2)s1 | inactive: 9.78% |  |

| Compound | activity change, negative = inhibition | Potency |
| --- | --- | --- |
| O=c1c(-c2ccc(F)cc2)nc2cncnc2n1Cc1ccc(F)cc1 | inactive: 14.3% |  |
| CCCCCCCCCCCCCCC[C@@H](O)[C@H](CO)NC(=O)CCCCCCC | inactive: 16.6% [at 15.3 µM] |  |
| O=C1NCC2(CCN(CCc3ccccc3)CC2)O1 | inactive |  |
| O=C(NC1CCN(Cc2ccccc2)C1)c1cnn(-c2ncc3c(n2)-c2ccccc2CC3)c1C1CC1 (stereo not drawn) | inactive: 8.27% |  |
| CCNc1ncc2ncc(=O)n(Cc3ccc(F)cc3)c2n1 | inactive: -5.36% |  |
| CC[C@@H](C)CCCCC(=O)N[C@@H](CCNCS(=O)(=O)O)C(=O)N[C@H](C(=O)N[C@@H](CCNCS(=O)(=O)O)C(=O)N[C@H]1CCNC(=O)[C@H]([C@@H](C)O)NC(=O)[C@H](CCNCS(=O)(=O)O)NC(=O)[C@H](CCNCS(=O)(=O)O)NC(=O)[C@H](CC(C)C)NC(=O)[C@@H](CC(C)C)NC(=O)[C@H](CCNCS(=O)(=O)O)NC1=O)[C@@H](C)O (X8-[Dab(CH2SO3H)]T[Dab(CH2SO3H)][Dab][Dab(CH2SO3H)][dL]L[Dab(CH2SO3H)][Dab(CH2SO3H)]T; lactam 4-C) | inactive: -23.5% |  |
| Clc1ccc2c(c1)CCc1cccnc1C2=C1CCNCC1 | inactive |  |
| COc1cc(/C=C\c2ccc(OC)cc2OC)cc(OC)c1 | inactive: -2.57% |  |
| O=C(Nc1cccc(F)c1)N1CC[C@@]2(CCCN(C(=O)c3ccco3)C2)C1 | inactive: 21% |  |
| Cc1cc(C(=O)NCC2CCC3(CCN(Cc4cc(F)ccc4F)CC3)O2)n(C)n1 (stereo not drawn) | inactive: 20.5% |  |
| N#Cc1ccc(CN2CCC3(CC2)CCN(S(=O)(=O)c2ccccc2)CC3)cc1 | inactive: -11.5% |  |
| COc1cc2c(c(OC)c1OC)-c1ccc(OC)c(=O)cc1C(NC(C)=O)CC2 (stereo not drawn) | inactive: -2.07% |  |
| COc1ccccc1N1CCN(c2nc(CNC(=O)c3ccc4c(c3)OCO4)nc3ccccc23)CC1 | inactive: 8.89% |  |
| COc1ccc2cnoc(=O)c2c1OC | inactive: 9.04% |  |
| O=C1CC[C@H](O)CCN1[C@H](CSc1ccc(Br)cc1)Cc1ccccc1 | inactive: 2.81% |  |
| CSC(=N)N | inactive |  |
| O=c1c(CCc2ccccc2)nc2cncnc2n1Cc1ccccc1Cl | inactive: -1.38% |  |
| CN(C)Cc1ccccc1-c1nc(N(C)Cc2ccco2)c2ccccc2n1 | inactive: 2.28% |  |
| CN(CCCN1c2ccccc2CCc2ccccc21)CC(=O)c1ccc(Cl)cc1 | inactive: 5.91% |  |
| CC(=O)[C@@]1(O)[C@H](O)CC2C3CCC4CC(O)CC[C@]4(C)C3CC[C@@]21C (stereo partly drawn) | inactive: 10.4% |  |
| O=C1CCN(Cc2cccnc2)CCN1[C@H](CO)c1ccccc1 | inactive: 10.3% |  |
| COc1ccccc1CNc1ncnc2sc(C(=O)N3CCN(C)CC3)c(C)c12 | inactive: 17.9% |  |
| COCCNc1nc(-c2cccc(NS(C)(=O)=O)c2)nc2ccccc12 | inactive: -9.11% |  |
| N#CCCn1c(=O)c(-c2cccc(C#N)c2)nc2cnc(Oc3ccccc3)nc21 | inactive: 12.8% |  |

| Compound | activity change, negative = inhibition | Potency |
| --- | --- | --- |
| O=C(C[n+]1cccc(Br)c1)c1ccc(F)cc1 | inactive: 16% |  |
| CCOC(=O)Cc1ccc(-c2ccccc2)cc1 | inactive: 5.63% |  |
| O=C(CCCCCN1CCN(c2ccccc2-c2ccccc2)CC1)NC1CCCc2ccccc21 (stereo not drawn) | inactive: -13% [at 75.8 µM] |  |
| Cc1ccc(CN2C[C@H](Sc3ccccn3)C[C@H]2C(=O)Nc2ccc3sc(C)nc3c2)cc1 | inactive: 4.97% |  |
| CCNc1ncc2nc(CCc3ccccc3)c(=O)n(-c3ccccc3)c2n1 | inactive: 9.74% |  |
| Cc1cc2nc3c(=O)[nH]c(=O)nc-3n(C[C@H](O)[C@H](O)[C@H](O)CO)c2cc1C | inactive |  |
| CC1CCC(C(C)(C)O)CC2=C1CCC2C (stereo not drawn) | inactive: 16.1% |  |
| Cc1ncc(COP(=O)(O)O)c(CN)c1O | inactive: 10.9% |  |
| O=C(O)C(O)C(O)(Cc1ccc(O)cc1)C(=O)O (stereo not drawn) | inactive: 19.6% |  |
| CCC1(C2CCN(Cc3ccoc3)CC2)NC(=O)N(CC2COc3ccccc3O2)C1=O (stereo not drawn) | inactive: 8.53% |  |
| Cc1ccc(SC[C@H](Cc2ccccc2)N2CC[C@@H](C(C)(C)C)CCC2=O)cc1 | inactive: -1.28% |  |
| O=C(c1cn(CC2CCCN(Cc3cc4ccccc4s3)C2)nn1)N1CCCC1 (stereo not drawn) | inactive: 14.1% |  |
| O=C1NC(=O)c2cc(Nc3ccccc3)c(Nc3ccccc3)cc21 | inactive: -5.26% [at 75.8 µM] |  |
| CC1(C)OC[C@@H](COC(=O)CCc2ccc(OC[C@@H](O)CNCCNC(=O)N3CCOCC3)cc2)O1 | inactive |  |
| Cc1[nH]cnc1CN1CCc2c(c3ccccc3n2C)C1=O | inactive: 23.2% |  |
| Cc1ncc2c(c1CNC(=O)c1ccccc1F)CCN(C(=O)c1ccccc1-n1cccn1)C2 | inactive: 18.6% |  |
| O=C(Cn1c(=O)sc2ccc(Cl)cc21)N1CCN(CCO)CC1 | inactive: 31.6% |  |
| Cc1noc(NS(=O)(=O)c2cccc3c(N(C)C)cccc23)c1C | inactive: 11.8% |  |
| Cc1c(C(=O)NCc2nccs2)cnn1-c1ncc2c(n1)-c1ccccc1CC2 | inactive: -5.43% |  |
| CCN(CC)c1ccc(/C=C/c2ccccn2)cc1 | inactive: -15% |  |
| COC(=O)N1CCC2(CCN(Cc3nccs3)CC2)CC1 | inactive: 29.2% |  |
| Cc1ccccc1-c1ccc2ncnc(N(C)C)c2c1 | inactive: 10% |  |
| COC(=O)N1CCC2(CCN(C(=O)NC(C)C)CC2)CC1 | inactive: 17.8% |  |
| CCCCC(C)(O)C/C=C/[C@H]1[C@H](O)CC(=O)[C@@H]1CCCCCCC(=O)O (stereo partly drawn) | inactive: 15.2% [at 15.3 µM] |  |

| Compound | activity change, negative = inhibition | Potency |
| --- | --- | --- |
| COc1cccc(Nc2ncc3ncc(=O)n(CCC#N)c3n2)c1 | inactive: -0.343% |  |
| CCN(CC)C(=O)c1ccc(O)c(OC)c1 | inactive |  |
| NC1(C(=O)O)CC1 | inactive |  |
| COc1ccc(-c2cc(=O)c3c(O)c(OC)c(OC)c(OC)c3o2)cc1 | inactive: 17% |  |
| Fc1ccc(Nc2ccnc(-c3ccc4c(c3)OCO4)n2)cc1 | inactive: -16.5% |  |
| O=C1CCN(CCc2ccccc2)CCN1[C@H](COc1ccccc1)Cc1ccccc1 | inactive: -4.29% |  |
| Oc1cc2c(cc1O)C1c3ccc(O)c(O)c3OCC1(O)C2 (stereo not drawn) | inactive: -26.1% |  |
| O=C(C[n+]1ccncc1)c1ccc(Br)cc1 | inactive: 7.21% |  |
| CO[C@H]1C=CO[C@@]2(C)Oc3c(C)c(O)c4c(O)c(c(/C=N/N5CCN(C)CC5)c(O)c4c3C2=O)NC(=O)/C(C)=C\C=C[C@H](C)[C@H](O)[C@@H](C)[C@@H](O)[C@@H](C)[C@H](OC(C)=O)[C@@H]1C |  | active: 89.1 µM |
| CSc1nnc(CNS(=O)(=O)c2ccc(F)cc2F)n1-c1ccccc1C | inactive: -0.377% |  |
| C[C@H](C(=O)O)c1cccc(C(=O)c2ccccc2)c1 | inactive: 4.35% |  |
| CS(=O)(=O)Nc1c(O)ccc2c1CCC[C@H]2C1=NCCN1 | inactive: 12% |  |
| COC(=O)N1CCC2(CC1)CN(c1ccccn1)C2 | inactive: 17.7% |  |
| CCNc1ncc2nc(-c3ccc(F)cc3)c(=O)n(-c3ccccc3)c2n1 | inactive: -5.91% |  |
| O=C(c1ccc(F)cc1)C1CCN(CCn2c(=O)[nH]c3ccccc3c2=O)CC1 | inactive |  |
| O=C(O)CCCCCCCCc1cn(Cc2ccc(C(=O)c3ccccc3)cc2)nn1 | inactive: 11.1% |  |
| CCCCCCCCCCOc1cc2c(=O)c(C(=O)OCC)c[nH]c2cc1OCC | inactive: -2.15% |  |
| CN(C)CC(C)(O)c1ccc2c(c1)CN(Cc1cccn1-c1cccnc1)CCO2 (stereo not drawn) | inactive: -12.1% |  |
| Cn1cc(CN2CCC(C3(c4ccccn4)NC(=O)N(CC4CCCO4)C3=O)CC2)c2ccccc21 (stereo not drawn) | inactive: -0.989% |  |
| COc1ccc(CN2CCOc3ccc(CN4CCC(Oc5cccnc5)CC4)cc3C2)cc1C | inactive: 13.5% |  |
| CCN(CC)C(=S)S | inactive: -1.44% |  |
